This note sets out measurements from article PMC4336329 (PLoS ONE, 2015).

The campaign covered roughly 310,000 compounds. About 14,000 (4.5%) showed an effect of 50% or more. Effects have a minus sign here. The list shows a part of the results.
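Note: peak tail current of the secondary pulse compared with the same well before compound.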

human ether-à-go-go-related gene (hERG) potassium channel, sequence (Q12809 whole entry, looked up): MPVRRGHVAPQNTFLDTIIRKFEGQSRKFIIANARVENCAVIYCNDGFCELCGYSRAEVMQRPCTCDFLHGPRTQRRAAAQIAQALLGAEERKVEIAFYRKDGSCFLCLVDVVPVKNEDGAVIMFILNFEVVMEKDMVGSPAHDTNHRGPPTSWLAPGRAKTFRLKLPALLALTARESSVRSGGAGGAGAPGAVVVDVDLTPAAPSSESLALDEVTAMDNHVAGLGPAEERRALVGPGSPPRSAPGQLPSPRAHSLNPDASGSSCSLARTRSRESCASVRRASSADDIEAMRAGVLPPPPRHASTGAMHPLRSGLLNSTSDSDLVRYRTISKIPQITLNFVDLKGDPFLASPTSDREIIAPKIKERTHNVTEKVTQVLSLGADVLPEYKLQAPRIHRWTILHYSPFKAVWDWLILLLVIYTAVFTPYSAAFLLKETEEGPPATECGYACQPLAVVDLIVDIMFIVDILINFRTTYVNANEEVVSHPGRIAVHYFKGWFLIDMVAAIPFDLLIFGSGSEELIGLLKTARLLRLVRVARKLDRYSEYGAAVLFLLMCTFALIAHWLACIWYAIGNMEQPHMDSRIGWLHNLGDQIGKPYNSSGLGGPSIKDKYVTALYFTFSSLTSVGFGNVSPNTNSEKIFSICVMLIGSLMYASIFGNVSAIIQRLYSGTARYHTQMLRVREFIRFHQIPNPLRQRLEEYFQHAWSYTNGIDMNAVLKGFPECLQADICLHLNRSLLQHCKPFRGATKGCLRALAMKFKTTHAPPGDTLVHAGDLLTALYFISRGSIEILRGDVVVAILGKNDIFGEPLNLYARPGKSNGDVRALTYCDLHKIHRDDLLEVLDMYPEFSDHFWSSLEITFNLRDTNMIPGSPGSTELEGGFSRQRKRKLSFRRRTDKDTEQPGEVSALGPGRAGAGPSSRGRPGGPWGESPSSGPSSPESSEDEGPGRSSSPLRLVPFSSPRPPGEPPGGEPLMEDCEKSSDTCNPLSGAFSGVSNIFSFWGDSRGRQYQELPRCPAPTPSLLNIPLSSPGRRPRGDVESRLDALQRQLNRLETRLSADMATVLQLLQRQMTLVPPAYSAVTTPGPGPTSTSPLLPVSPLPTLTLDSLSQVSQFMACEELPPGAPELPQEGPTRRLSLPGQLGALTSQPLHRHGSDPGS

The assay has as its target human ether-à-go-go-related gene (hERG) potassium channel (human, UniProt Q12809). Briefly: primary screen, population patch clamp on CHO cells stably expressing hERG.
With `CCOC(=O)Cn1c(=O)c2c(nc3n2CCCCN3c2ccc(C)cc2)n(C)c1=O`, the “hERG current change (%, negative = inhibition) at 10uM” value was -19.5%. With `COC(=O)[C@H](Cc1ccccc1)NC(=O)NCC1CCCO1` (stereo partly drawn), the “hERG current change (%, negative = inhibition) at 10uM” value was 13.1%. For `Nc1cc(N)nc(SCC(=O)Nc2ccc(Br)cc2Cl)n1` the value was 7.29%; for `COc1ccc(N2C(=O)C3C(C2=O)C(C(=O)c2ccccc2)N2CCCC32)cc1` (stereo not drawn), -26.8%.

Turning to `CCOC(C(=O)OCCC[N+](C)(CC)CC)(c1ccccc1)c1ccccc1.COS(=O)(=O)[O-]`, the “hERG current change (%, negative = inhibition) at 10uM” value was 6.63%. The same measure for `C=C(C)CN(CC)C(=O)CSc1nc2ncc(Cl)cc2[nH]1`: 3.41%. For the molecule `CCOc1ccc(CC(=O)Nc2sc(Cc3ccccc3)c(C)c2C(N)=O)cc1OCC`, the “hERG current change (%, negative = inhibition) at 10uM” value is 0.242%.

As to `Cc1c(C(=O)Nc2ccc(OC(F)(F)F)cc2)sc2nc3n(c(=O)c12)CCC3`, the “hERG current change (%, negative = inhibition) at 10uM” value was -8.26%. Regarding `CCCOC(=O)CSc1nnc(-c2cc(OC)c(OC)c(OC)c2)o1`, the “hERG current change (%, negative = inhibition) at 10uM” value was -6.19%.

With `O=C(Nc1cccc2c1C(=O)NC2=O)c1ccc(S(=O)(=O)N2CCCC2)cc1`, the “hERG current change (%, negative = inhibition) at 10uM” value is reported as -4.47%. For `OC(CNc1nc(-c2cccnc2)nc2ccccc12)c1ccccc1` (stereo not drawn) the value was -36.4%; for `COC(=O)[C@H]1CN(C(=O)c2ccccc2)C(=O)N1`, 0.278%; for `CN(C)CCCNc1nc(-c2ccccc2)c2c(c1C#N)CC(C)(C)OC2`, -57.4%.

As to `Cc1ccc(/C=N/NC(=O)c2cc(-c3ccc(C)o3)[nH]n2)cc1`, the “hERG current change (%, negative = inhibition) at 10uM” value came to 5.08%. For `COc1ccc(CSc2ccc(S(=O)(=O)N3CCCCC3)cn2)cc1F` the value was 3.35%; for `COCCCNC(=O)CS(=O)Cc1nc(-c2cccc(OC)c2)oc1C` (stereo not drawn), -3.3%; for `COc1ccc(CC(=O)N2N=C(C)CC2(O)c2cccnc2)cc1OC` (stereo not drawn), -17%. For the molecule `O=C(CNc1cccc(S(=O)(=O)N2CCCCC2)c1)Nc1ccccc1F`, the “hERG current change (%, negative = inhibition) at 10uM” value was determined as 10.4%. Turning to `CC1(C)O[C@@H]2C[C@H]3[C@@H]4CCC5=CC(=O)CC[C@]5(C)[C@@]4(F)[C@@H](O)C[C@]3(C)[C@]2(C(=O)CCl)O1`, the “hERG current change (%, negative = inhibition) at 10uM” value is given as 13.7%. For `O=C(O)c1ccc(Nc2nc(-c3cccnc3)cs2)cc1` the value was 10.5%; for `CCCCNC(=O)NNC(=O)COc1cc(C)cc(C)c1`, 6.66%; for `Cc1ccccc1CNS(=O)(=O)c1c(C(=O)N2CCCC2)c(C)n(C)c1C`, 14.8%.

For the molecule `CN(C)S(=O)(=O)N(CC(=O)N1CCOCC1)c1ccccc1`, the “hERG current change (%, negative = inhibition) at 10uM” value is -5.88%.

As for `COC(=O)CCCN1C(=O)c2cccc3cccc(c23)C1=O`, the “hERG current change (%, negative = inhibition) at 10uM” value stood at 9.66%. For `Cc1cc(Br)ccc1SCC(=O)OCC(=O)N1CCN(C(=O)c2ccco2)CC1` the value was -66.8%; for `O=C(Cn1cc(C(=O)C2CC2)c2ccccc21)NCc1ccc2c(c1)OCO2`, 10.2%. Turning to `COc1ccc(Cn2c(=O)[nH]c3cc(C(=O)NCCCN4CCCC4=O)ccc3c2=O)cc1`, the “hERG current change (%, negative = inhibition) at 10uM” value was determined as 0.0335%. The same measure for `Cc1cccc(NC(=O)c2sc3nc(N)c(C#N)cc3c2N)c1`: 13.9%; for `COc1ccc(/C=N/NC(=O)C(=O)N2CCCCCC2)cc1`: 22.2%; for `c1cc2nncn2nc1N1CCCC1`: 2.55%. As for `CCOc1ccc(NC(=O)C2CCCN(S(=O)(=O)c3cccc4nsnc34)C2)cc1` (stereo not drawn), the “hERG current change (%, negative = inhibition) at 10uM” value is given as -2.01%. The same measure for `COc1cccc(CN(C)C(=O)c2cccc(S(=O)(=O)N3CCN(c4ccc(F)cc4)CC3)c2)c1OC`: -15.9%; for `C=CCn1c(-c2cc3cccc(OC)c3o2)n[nH]c1=S`: 20.1%. For `CCOC(=O)c1c(/N=C/C2C(=O)NC(=S)NC2=O)sc2c1CCC2` the value was 13.7%; for `CS(=O)(=O)Nc1ccc(C(=O)Nc2ccc3c(c2)OCO3)cc1`, 15.3%; for `CCOc1ccc(CCNC(=O)C(C)n2nc(C)c3c(C)n(-c4ccccc4)nc3c2=O)cc1` (stereo not drawn), -36%. The same measure for `Cc1cc(SCc2cc(=O)[nH]c3ccccc23)nc2ccccc12`: 16.4%. In the case of `C=C(C)CN1C(=O)c2ccccc2C1=O`, the “hERG current change (%, negative = inhibition) at 10uM” value is given as -2.81%. Consider `COc1ccc(-n2c(N)c(C(=O)NCc3ccco3)c3nc4ccccc4nc32)cc1`, for which the “hERG current change (%, negative = inhibition) at 10uM” value stood at 2.86%. Consider `Cc1cccc(C(=O)Nc2cccc(C(=O)Nc3cc(C)ccn3)c2)c1`, for which the “hERG current change (%, negative = inhibition) at 10uM” value stood at 7.29%. `CC(=O)c1ccc(N2CCC(c3cc(-c4ccc(Cl)cc4Cl)n[nH]3)CC2)c([N+](=O)[O-])c1`: the “hERG current change (%, negative = inhibition) at 10uM” value is recorded as -3.28%. The same measure for `O=C(OC1CCN(c2ncc(C(F)(F)F)cc2Cl)CC1)c1ccccc1`: 3.57%; for `COc1ccc(/C=C/C(=O)O)cc1Cl`: 8.47%; for `CCOC(=O)N/N=C\c1ccc(C)s1`: -6.9%. As for `COc1cc(NC(=O)Cn2ccsc2=N)c(C)cc1[N+](=O)[O-].Cl`, the “hERG current change (%, negative = inhibition) at 10uM” value was -13.6%. For `Cn1c(-c2sccc2OCc2ccccc2)n[nH]c1=S` the value was 2.09%. The same measure for `O=C(CNC(=O)C1CCCCC1)NNC(=O)c1ccccc1Br`: 16.7%; for `CCN(CC)C(=O)c1sc2c(c1C)c(=O)n(-c1ccc(OC)cc1OC)c(=O)n2CC(=O)c1ccccc1`: -12.1%.

On to `CCOS(C)(=O)=O`, for which the “hERG current change (%, negative = inhibition) at 10uM” value was determined as 22.4%. For `Clc1ccc(CNc2cnccn2)cc1Cl` the value was -4.29%.

With `COc1ccc(OC)c(Cc2nnc(CCC(=O)NC(C3CC3)C3CC3)o2)c1`, the “hERG current change (%, negative = inhibition) at 10uM” value is recorded as -2.22%.

In the case of `O=C(CCc1c[nH]c2ccccc12)NCCc1ccc(O)cc1`, the “hERG current change (%, negative = inhibition) at 10uM” value was -1.78%. For `Cc1cccc(N2CCN(C(=O)c3ccc(CS(=O)Cc4cccc(Cl)c4)o3)CC2)c1C` (stereo not drawn) the value was -13.5%; for `CCOCC(=O)Nc1ccc([N+](=O)[O-])cc1OC`, -19.4%; for `O=C(COc1ccc([N+](=O)[O-])cc1)Nc1nnc(-c2cccnc2)s1`, -17.6%.

Consider `NS(=O)(=O)c1ccc(CNC(=S)NCc2ccc(Cl)cc2)cc1`, for which the “hERG current change (%, negative = inhibition) at 10uM” value is -0.561%. On to `NS(=O)(=O)c1ccc(NC(=O)C(Sc2ccccc2)c2ccccc2)cc1` (stereo not drawn), for which the “hERG current change (%, negative = inhibition) at 10uM” value is 17.1%. For `COc1ccc(CNS(=O)(=O)c2c(C(=O)N3CCCCC3)c(C)n(C)c2C)cc1` the value was -0.36%; for `COC(=O)c1ccc(N2CCN(C)CC2)c(NC(=O)c2ccc(Br)o2)c1`, -55.8%.

In the case of `COCCNC(=S)N=Nc1c(O)[nH]c2c(C)cc(C)cc12`, the “hERG current change (%, negative = inhibition) at 10uM” value amounted to 10.1%. Take `CC(c1ccccc1)N1CC(C(=O)Nc2nccs2)CC1=O` (stereo not drawn): the “hERG current change (%, negative = inhibition) at 10uM” value is given as 16.6%. For `CCC(Sc1nc2ccccc2[nH]1)C(=O)Nc1ccc(NC(C)=O)cc1` (stereo not drawn) the value was -7.2%; for `Cc1ccc2nc(NCc3ccccc3)c(C=O)c(=O)n2c1`, 10.7%. For `Cc1ccccc1C(=O)N1CCC(C(=O)Nc2ccc(S(=O)(=O)N(C)C(C)C)cc2)CC1` the value was -38.4%.

With `O=C(Nc1cccc(Cl)c1)N1CCc2ccccc2C1`, the “hERG current change (%, negative = inhibition) at 10uM” value is -10.3%. The same measure for `COc1ccc(NC(=O)NCCCCc2ccccc2)cc1OC`: 6.28%; for `CC1=CC2=NC(=O)/C(=C\c3cc(C)n(-c4ccc(F)cc4)c3C)C(=N)N2O1`: 12.5%; for `O=C(NCCc1ccncc1)c1ccc2nc(Cc3cccc(Cl)c3)oc2c1`: -39.1%. The same measure for `Cc1cc(/C=N/n2cnnc2)c(C)n1-c1ccc(OCc2ccc(Cl)cc2)cc1`: -5.72%; for `CSC1=NC(C(Cl)(Cl)Cl)N=C(c2ccc(C)cc2)N1.Cl` (stereo not drawn): -13%. As for `O=C(Nc1ncn[nH]1)c1ccccc1O`, the “hERG current change (%, negative = inhibition) at 10uM” value stood at 4.42%. For `COc1ccc(-c2nnc(NC(=O)c3ccco3)s2)cc1` the value was 25%; for `COc1ccc(C(=O)Nc2cnc3ccccn3c2=O)cc1`, 27.7%; for `Cc1ccc(C(=O)NCCCN2CCN(CCCNC(=O)c3ccc(C)cc3)CC2)cc1`, -67.5%.

In the case of `O=C1NC(=O)c2cc(NC(=O)c3cccc4ccccc34)ccc21`, the “hERG current change (%, negative = inhibition) at 10uM” value was found to be 7.86%. The same measure for `CCn1c(/C=C2\C(=O)N(C)c3ccccc32)nc2ccccc2c1=O`: 9.49%; for `O=[N+]([O-])c1cccc(-c2nc3ccccc3s/c2=N/O)c1`: 8.61%; for `N#Cc1nc(Cc2ccccc2)oc1N1CCC(Cc2ccccc2)CC1`: 24.5%. `COc1ccc(N2CCN(C(=O)CCN3C(=O)c4ccccc4S3(=O)=O)CC2)cc1.Cl`: the “hERG current change (%, negative = inhibition) at 10uM” value is recorded as -22.1%. `O=C(NCc1ccco1)c1ccc(CNc2c(N3CCCCC3)c(=O)c2=O)cc1`: the “hERG current change (%, negative = inhibition) at 10uM” value was 1.66%. As to `O=C(O)C/C=C(/NC(=O)OCc1ccccc1)C(=O)OCc1ccccc1`, the “hERG current change (%, negative = inhibition) at 10uM” value is recorded as -3.13%. For `Cc1ccc(S(=O)(=O)CCC(=O)OCC(=O)NNC(=O)c2ccc([N+](=O)[O-])cc2)cc1` the value was -13.5%. As to `O=C(CN1CCc2ccccc2C1)Nc1ccccc1N1CCCCCC1.O=C(O)C(=O)O`, the “hERG current change (%, negative = inhibition) at 10uM” value is recorded as -5.79%. Consider `CCc1ccc(C(=O)C(C)OC(=O)CNS(=O)(=O)c2ccc(C)cc2)cc1` (stereo not drawn), for which the “hERG current change (%, negative = inhibition) at 10uM” value was -11%. The same measure for `Cc1ccc(-c2c(C#N)c(N)nc3c2CCCC3)o1`: 5.75%; for `CCOC(=O)C(C)Sc1nnc(CSc2nc3nc(C)cc(C)n3n2)o1` (stereo not drawn): 9.3%; for `C=CCONC(=O)c1cc(OCC(F)(F)F)ccc1OCC(F)(F)F`: -22.2%.
